From paper PMC4336329 (PLoS ONE, 2015)
Hit rate of the full screen: of about 310,000 compounds, about 14,000 (4.5%) showed an effect of 50% or more. Effects have a minus sign here. The list shows a part of the results.

target: human ether-à-go-go-related gene (hERG) potassium channel (human, UniProt Q12809); assay: primary screen, population patch clamp on CHO cells stably expressing hERG
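Also: peak tail current of the secondary pulse compared with the same well before compound.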

human ether-à-go-go-related gene (hERG) potassium channel, sequence (Q12809 whole entry, looked up): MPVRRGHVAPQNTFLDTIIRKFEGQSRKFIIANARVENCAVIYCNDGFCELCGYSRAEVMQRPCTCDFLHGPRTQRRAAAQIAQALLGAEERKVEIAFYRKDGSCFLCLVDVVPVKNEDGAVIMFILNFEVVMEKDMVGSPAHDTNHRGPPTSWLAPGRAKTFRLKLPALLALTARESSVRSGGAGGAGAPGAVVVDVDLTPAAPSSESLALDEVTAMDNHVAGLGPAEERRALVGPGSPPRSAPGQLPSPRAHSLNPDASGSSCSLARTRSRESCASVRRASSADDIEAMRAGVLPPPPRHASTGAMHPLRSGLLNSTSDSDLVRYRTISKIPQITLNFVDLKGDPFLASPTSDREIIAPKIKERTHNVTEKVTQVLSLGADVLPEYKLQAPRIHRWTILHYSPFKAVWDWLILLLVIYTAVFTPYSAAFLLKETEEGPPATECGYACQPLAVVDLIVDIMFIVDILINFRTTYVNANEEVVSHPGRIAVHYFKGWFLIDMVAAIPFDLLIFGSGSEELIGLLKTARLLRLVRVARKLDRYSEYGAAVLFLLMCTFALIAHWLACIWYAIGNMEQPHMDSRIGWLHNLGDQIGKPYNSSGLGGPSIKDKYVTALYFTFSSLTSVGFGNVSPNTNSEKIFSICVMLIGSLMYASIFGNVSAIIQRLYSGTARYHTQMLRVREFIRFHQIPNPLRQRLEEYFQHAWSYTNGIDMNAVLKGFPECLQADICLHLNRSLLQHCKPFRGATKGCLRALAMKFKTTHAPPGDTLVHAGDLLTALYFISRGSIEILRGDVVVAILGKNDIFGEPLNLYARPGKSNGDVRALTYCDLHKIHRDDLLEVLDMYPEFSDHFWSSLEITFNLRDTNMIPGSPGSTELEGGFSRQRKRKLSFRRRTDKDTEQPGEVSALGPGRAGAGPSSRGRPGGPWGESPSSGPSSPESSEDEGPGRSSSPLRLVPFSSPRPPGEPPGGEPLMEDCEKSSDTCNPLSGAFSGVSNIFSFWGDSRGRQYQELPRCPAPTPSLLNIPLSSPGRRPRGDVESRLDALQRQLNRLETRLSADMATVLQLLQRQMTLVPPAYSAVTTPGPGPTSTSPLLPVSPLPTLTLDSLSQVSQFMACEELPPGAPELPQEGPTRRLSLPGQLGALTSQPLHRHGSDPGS

Row | Compound | hERG current change (%, negative = inhibition) at 10uM [%]
1 | O=C(NCCN1CCNC1=O)C1CCC(=O)N(Cc2ccccc2F)C1 (stereo not drawn) | 0.273
2 | Cc1ccc(-c2cc(C(F)(F)F)n3ncc(C(=O)NCc4ccco4)c3n2)cc1 | -5.6
3 | O=C(O)CSc1nnc(-c2ccncc2)n1CCc1ccccc1 | -2.09
4 | COCCNC(=O)C1CCN(S(=O)(=O)N2CCC3(CC2)OCCO3)CC1 | 15.7
5 | Cc1[nH]c2ccccc2c1C(=O)CSc1nncn1C | 11
6 | O=C(O)CCCC(=O)Nc1ccc(N=Nc2ccccc2)cc1 | 14.5
7 | CC(=O)Nc1ccc(-c2csc(NC(=O)CCCc3cccs3)n2)cc1 | 6.06
8 | COc1cc([C@H]2[C@@H]3CCCC[C@]3(O)CCN2CC(=O)Nc2ccc(C)cc2C)ccc1O | -11
9 | O=C(Cn1c(=O)cnc2ccccc21)N1CCN(S(=O)(=O)c2ccccc2Br)CC1 | 11
10 | CCOC(=O)c1c(CSc2ccc(CC)cc2)oc2ccc(O)c(CN(C)C)c12.Cl | -55.3
11 | O=C(CC(c1ccccc1)c1ccco1)N1CCOCC1 (stereo not drawn) | -4.08
12 | COCCN(C(=O)C1CC1)c1nnc(-c2ccc(C)cc2)s1 | 16.5
13 | CC1Cc2ccccc2N1C(=O)COC(=O)c1ccc(Cl)c(S(=O)(=O)N2CCOCC2)c1 (stereo not drawn) | -49.9
14 | O=C(CN1C(=O)C2C3c4ccccc4C(c4ccccc43)C2C1=O)Nc1ccccc1C(=O)O (stereo not drawn) | 10.4
15 | CCOC(=O)c1ccc(NC(=O)c2cc(F)c(F)cc2Cl)cc1 | -6.48
16 | Cc1ccc(Nc2nc(N)[nH]c(=O)c2N=O)cc1 | 27.6
17 | COCCN(C(=O)COC(=O)Cc1cccc2ccccc12)c1c(N)n(Cc2ccccc2)c(=O)[nH]c1=O | -23.1
18 | CC1=CC=CN2C1=NC(=O)CC2(C)C(=O)N(CC(=O)NC1CCCC1)c1ccccc1C (stereo not drawn) | 18.8
19 | CC(C)C(=O)NNC(=O)CSc1nnnn1C(C)C | 13
20 | COc1ccccc1OCc1ccc(C(=O)N/N=C/c2ccco2)cc1 | 13
21 | O=C(NC(=S)Nc1ccc(Cl)c(C(=O)O)c1)c1ccc(OCc2ccccc2)cc1 | 15.1

Row | Compound | hERG current change (%, negative = inhibition) at 10uM [%]
22 | OCCCn1c(C2CCCN2c2nc(-c3ccc(F)cc3)cs2)nc2cc(C(F)(F)F)ccc21 (stereo not drawn) | -21
23 | Cc1ccc(S(=O)(=O)CC(=O)Nc2nnc(C)s2)cc1 | -4.92
24 | O=C(Nc1ccc(Cl)cc1)c1ccc(S(=O)(=O)N2CCOCC2)cc1 | -0.19
25 | Cc1nn(C)c(C)c1/C=C/C(=O)c1ccc(Cl)cc1Cl | -18.2
26 | C/C(=N\NC(=O)c1cccs1)C(C)(C)C | 5.21
27 | CN(CC(=O)Nc1ccccc1C(F)(F)F)C(=O)C1CCN(S(=O)(=O)c2ccc3c(c2)OCCO3)CC1 | -3.2
28 | COc1ccccc1NC(=S)NC(NC(=O)CC(C)C)C(Cl)(Cl)Cl (stereo not drawn) | 22.2
29 | O=C(Nc1ccc(OCC(=O)N2CCOCC2)cc1)c1ccccc1F | 11.7
30 | N/C(=N\S(=O)(=O)c1ccc(Cl)s1)c1ccccc1 | -11.8
31 | Cc1ccccc1NC(=O)Cc1nc(COC(=O)CNS(=O)(=O)c2cccc(Br)c2)cs1 | -14
32 | CCC(C)Nc1nc(N)c([N+](=O)[O-])c(Nc2ccccc2OC)n1 (stereo not drawn) | -17.4
33 | COc1ccc(/C=C2\SC(=S)N(CCC(=O)NC3=NCCS3)C2=O)cc1OC | 7.22
34 | C/C(=N\NC(=O)c1nnn(-c2nonc2N)c1CN(C)c1ccccc1)c1ccccc1O | 20.3
35 | CC(=O)NC1(c2ccc(F)cc2)CCN(C(=O)Nc2ccc(F)cc2F)CC1 | 2.01
36 | O=c1c2ccccc2nc(/C=C/c2ccccc2)n1CCc1ccccc1 | -5.9
37 | COc1ccc(N(CC(=O)NC2CCCCC2)C(=O)CNC(=O)c2cccs2)cc1 | -11.8
38 | COc1ccccc1-c1coc2c(CN3CCOCC3)c(O)ccc2c1=O | 8.17
39 | CCS(=O)(=O)c1ccc(O)c(NC(=O)COc2ccc(C)cc2)c1 | -30.2
40 | O=C(CSc1ncnc2c1oc1ccccc12)NCc1ccc(F)cc1 | -5.72
41 | COc1ccc(/C=C2\Oc3cc(OCC(=O)N4CCC(C(=O)O)CC4)ccc3C2=O)c(OC)c1OC | 9.72
42 | O=C(CSc1nnc(COc2ccc(Cl)cc2)n1Cc1ccco1)c1ccccc1F | 13.1
